Some of the results follow. The full chains were built here from the parent and the listed change. Inactive controls read about 0.05.
B1: TEV protease; numbered along this chain (parent)
chain: MGESLFKGPRDYNPISSSICHLTNESDGHTTSLYGIGFGPFIITNKHLFRRNNGTLVVQSLHGVFKVKDTTTLQQHLVDGRDMIIIRMPKDFPPFPQKLKFREPQREERICLVTTNFQTKSMSSMVSDTSCTFPSGDGIFWKHWIQTKDGQCGSPLVSTRDGFIVGIHSASNFTNTNNYFTSVPKNFMELLTNQEAQQWVSGWRLNADSVLWGGHKVFMVKPEEPFQPVKEATQL

Variants of: B1
Assay: raw area under fraction-flipped curve 0-4 h after induction (AUC4h, not background-subtracted), DNA-recorder readout of cleavage of the substrate (dimensionless); higher = more cleavage of the substrate by the protease variant
Details: temperature: 34 °C; time window: 0-4 h after rhamnose induction
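Note: Bxb1 expression induced with 0.2% (w/v) L-rhamnose at OD600 near 0.5, cultures sampled hourly, flipped fraction per protease–substrate barcode pair counted by paired-end Illumina sequencing.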

Row | Variant | area with substrate ENLYFQC | area with substrate ENLYFQD | area with substrate ENLYFQE | area with substrate ENLYFQF | area with substrate ENLYFQH | area with substrate ENLYFQK | area with substrate ENLYFQL | area with substrate ENLYFQM | area with substrate ENLYFQN | area with substrate ENLYFQP | area with substrate ENLYFQQ | area with substrate ENLYFQR | area with substrate ENLYFQS | area with substrate ENLYFQT | area with substrate ENLYFQW | area with substrate ENLYFQY | area with substrate ENLYFQG | area with substrate ENLYFQI | area with substrate ENLYFQV
1 | MGESLFKGPRDYNPISSSICHLTNESDGHTTSLYGIGFGPFIITNKHLFRRNNGWLVVQSLHGVFKVKDTTTLQQHLVDGRDMIIIRMPKDFPPFPQKLKFREPQREERICLVTTNFQTKSMSSMVSDTSCTFPSGDGIFWKHWIQTKDGQCGSPLVSTRDGFIVGIHSASNFTNTNNYFTSVPKNFMELLTNQEAQQWVSGWRLNADSVLWGGHKVFMVKPEEPFQPVKEATQL [T55W] | 0.118 | 0.0818 | 0.0595 | 0.05 | 0.0404 | 0.0647 | 0.0711 | 0.0909 | 0.0721 | 0.06 | 0.0775 | 0.0581 | 0.0992 | 0.0535 | 0.0612 | 0.0636 |  |  | 
2 | MGESLFKGPRDYNPISSSICHLTNESDGHTTSLYGIGFGPFIITNKHLFRRNNGTLVVQSLHGVFKVKDTTTLQQHLVRGRDMIIIRMPKDFPPFPQKLKFREPQREERICLVTTNFQTKSMSSMVSDTSCTFPSGDGIFWKHWIQTKDGQCGSPLVSTRDGFIVGIHSASNFTNTNNYFTSVPKNFMELLTNQEAQQWVSGWRLNADSVLWGGHKVFMVKPEEPFQPVKEATQL [D79R] | 0.0964 | 0.0806 | 0.0675 |  | 0.0719 | 0.0662 | 0.0589 | 0.0856 | 0.0511 |  |  | 0.0616 | 0.0826 | 0.0607 |  | 0.0681 | 0.0843 | 0.0499 | 
3 | MGESLFKGPRDYNPISSSICHLTNESDGHTTSLYGIGFGPFIITNKHLFRRNNGTLVVQSLHGVFKVKDTTTLQQHLVYGRDMIIIRMPKDFPPFPQKLKFREPQREERICLVTTNFQTKSMSSMVSDTSCTFPSGDGIFWKHWIQTKDGQCGSPLVSTRDGFIVGIHSASNFTNTNNYFTSVPKNFMELLTNQEAQQWVSGWRLNADSVLWGGHKVFMVKPEEPFQPVKEATQL [D79Y] | 0.148 |  |  |  |  | 0.0664 |  |  | 0.0845 |  |  |  | 0.0857 | 0.0549 | 0.0791 |  | 0.0536 | 0.0677 | 
4 | MGESLFKGPRDYNPISSSICHLTNESDGHTTSLYGIGFGPFIITNKHLFRRNNGTLHVQSLHGVFKVKDTTTLQQHLVDGRDMIIIRMPKDFPPFPQKLKFREPQREERICLVTTNFQTKSMSSMVSDTSCTFPSGDGIFWKHWIQTKDGQCGSPLVSTRDGFIVGIHSASNFTNTNNYFTSVPKNFMELLTNQEAQQWVSGWRLNADSVLWGGHKVFMVKPEEPFQPVKEATQL [V57H] | 0.103 | 0.0777 |  |  |  |  | 0.0747 |  |  |  |  | 0.0652 | 0.0942 |  | 0.108 |  | 0.131 |  | 0.0551
5 | MGESLFKGPRDYNPISSSICHLTNESDGHTTSLYGIGFGPFIITNKHLFRRNNGTLVVQSLHEVFKVKDTTTLQQHLVDGRDMIIIRMPKDFPPFPQKLKFREPQREERICLVTTNFQTKSMSSMVSDTSCTFPSGDGIFWKHWIQTKDGQCGSPLVSTRDGFIVGIHSASNFTNTNNYFTSVPKNFMELLTNQEAQQWVSGWRLNADSVLWGGHKVFMVKPEEPFQPVKEATQL [G63E] | 0.0916 |  |  |  |  | 0.0451 | 0.0619 |  |  |  | 0.0888 | 0.0497 | 0.0857 | 0.0717 |  |  |  |  | 0.0675
6 | MGESLFKGPRDYNPISSSICHLTNESDGHTTSLYGIGFGPFIITNKHLFRRNNGTLVVQSLHGVFKVKDTTTLQQHLVDGRDHIIIRMPKDFPPFPQKLKFREPQREERICLVTTNFQTKSMSSMVSDTSCTFPSGDGIFWKHWIQTKDGQCGSPLVSTRDGFIVGIHSASNFTNTNNYFTSVPKNFMELLTNQEAQQWVSGWRLNADSVLWGGHKVFMVKPEEPFQPVKEATQL [M83H] | 0.0605 | 0.0531 | 0.0644 | 0.0596 | 0.0508 |  | 0.0532 | 0.0559 | 0.0597 |  | 0.0572 | 0.0693 | 0.0568 | 0.0511 | 0.0601 | 0.063 | 0.0524 | 0.0506 | 
7 | MGESLFKGPRDYNPISSSICHLTNESDGHTTSLYGIGFGPFIITNKHLFRRNNGTLVVQSLHGVFKVKDTTTAQQHLVDGRDMIIIRMPKDFPPFPQKLKFREPQREERICLVTTNFQTKSMSSMVSDTSCTFPSGDGIFWKHWIQTKDGQCGSPLVSTRDGFIVGIHSASNFTNTNNYFTSVPKNFMELLTNQEAQQWVSGWRLNADSVLWGGHKVFMVKPEEPFQPVKEATQL [L73A] | 0.0703 |  |  |  |  | 0.0583 | 0.0558 |  |  |  |  | 0.0686 | 0.0701 | 0.062 |  |  | 0.0597 |  | 
8 | MGESLFKGPRDYNPISSSICHLTNESDGHTTSLYGIGFGPFIITNKHLFRRNNGTLVVQSLHGVFKVKDTTTMQQHLVDGRDMIIIRMPKDFPPFPQKLKFREPQREERICLVTTNFQTKSMSSMVSDTSCTFPSGDGIFWKHWIQTKDGQCGSPLVSTRDGFIVGIHSASNFTNTNNYFTSVPKNFMELLTNQEAQQWVSGWRLNADSVLWGGHKVFMVKPEEPFQPVKEATQL [L73M] | 0.0865 |  |  | 0.0312 | 0.067 | 0.0804 | 0.0187 | 0.0833 | 0.0699 |  | 0.0551 | 0.0627 | 0.0904 | 0.0442 |  | 0.0699 | 0.076 |  | 
9 | MGESLFKGPRDYNPISSSICHLTNESDGHTTSLYGIGFGPFIITNKHLFRRNNGTLVVQSLHGVFKVKDTTTLQQYLVDGRDMIIIRMPKDFPPFPQKLKFREPQREERICLVTTNFQTKSMSSMVSDTSCTFPSGDGIFWKHWIQTKDGQCGSPLVSTRDGFIVGIHSASNFTNTNNYFTSVPKNFMELLTNQEAQQWVSGWRLNADSVLWGGHKVFMVKPEEPFQPVKEATQL [H76Y] | 0.0886 |  |  |  | 0.0694 | 0.0673 | 0.0421 |  | 0.076 |  | 0.0695 | 0.0575 | 0.084 | 0.0647 | 0.0674 |  | 0.0469 | 0.0546 | 0.0518
10 | MGESLFKGPRDYNPISSSICHLTNESDGHTTSLYGIGFGPFIITNKHLFRRNNGTLVVQSLHGVFKVKDTTTLQQHLVDGQDMIIIRMPKDFPPFPQKLKFREPQREERICLVTTNFQTKSMSSMVSDTSCTFPSGDGIFWKHWIQTKDGQCGSPLVSTRDGFIVGIHSASNFTNTNNYFTSVPKNFMELLTNQEAQQWVSGWRLNADSVLWGGHKVFMVKPEEPFQPVKEATQL [R81Q] | 0.109 |  |  |  |  |  |  | 0.0715 | 0.0717 | 0.0576 |  | 0.0764 | 0.089 |  |  |  |  |  | 0.0479

Reference: the supplement of paper PMC12217912
